{
  "source": "PubChem BioAssay AID463173",
  "about": "(ICCB-Longwood Screening Facility, Harvard Medical School, 2010)",
  "note": "Out of some 52,000 compounds screened, about 4,300 (8.3%) were called active. No stated cut-off is given here; in the data, active means survival mostly below about 52% (no sharp cut-off); inactive means mostly above about 56%. This is one part of the list.",
  "data": [
    {"tested_on": "DeltatarO mutant", "assay": "S. aureus survival, RN4220 and DeltatarO strains – OD600, teichoic acid synthesis inhibitors, primary screen (AID 463173)", "conditions": "S. aureus RN4220 wild type/DeltatarO growth, OD600, 18 h, active compounds read low, screened at 18.75 µg/mL (by protocol)", "values": [
      {"smiles": "COc1ccc(N2CCN(C(CNC(=O)c3ccc(OC)c(OC)c3)c3cccnc3)CC2)cc1", "note": "(stereo not given)", "survival": "inactive: 72%"},
      {"smiles": "CCOC(=O)N[C@H](Cc1c[nH]c2ccccc12)C(=O)Nc1cccc(Cl)c1", "survival": "inactive: 107%"},
      {"smiles": "COc1ccc(OC)c(NC(=O)c2nc(S(=O)(=O)Cc3ccc(F)cc3)ncc2Cl)c1", "survival": "active: -5%"},
      {"smiles": "CCc1ccc(C2CC(=O)Nc3c2c(=O)n(C)c2ncnn32)cc1", "note": "(stereo not given)", "survival": "inactive: 165%"},
      {"smiles": "O=C(Oc1ccc(F)cc1)N1CCOCC1", "survival": "inactive: 95%"},
      {"smiles": "COc1ccc(C(=O)c2cn(CC(=O)Nc3cc(C)ccc3C)c3nc(C)ccc3c2=O)cc1", "survival": "inactive: 124%"},
      {"smiles": "CCOCCCN(Cc1ccco1)C(=O)c1cc2c(s1)-c1c(C)cccc1OC2", "survival": "active: -3%"},
      {"smiles": "Cc1cccc2nc(-c3ccccn3)c(Nc3ccccc3)n12", "survival": "inactive: 24%"},
      {"smiles": "CCCCOC(=O)c1ccc(-n2nnc3c(sc4nc(C)cc(C)c43)c2=O)cc1", "survival": "inactive: 89%"},
      {"smiles": "COc1ccc(CNC(=O)c2c(O)nc3c(C)cccn3c2=O)cc1", "survival": "inactive: 69%"},
      {"smiles": "CN(C)c1ccc(CNC(=O)CCCN2C(=O)c3cccnc3Oc3ccc(Cl)cc32)cc1", "survival": "inactive: 81%"},
      {"smiles": "Cc1cc(N2CCC(C)CC2)nc2ccc(NC(=O)Cc3ccccc3Br)cc12", "survival": "active: 46%"},
      {"smiles": "O=S(=O)(NCCc1nnc2ccc(SCc3ccccc3Cl)nn12)c1ccccc1", "survival": "active: 68%"},
      {"smiles": "CCOc1ccc(-c2nc(-c3ccccc3)c(-c3ccccc3)[nH]2)cc1OCC", "survival": "inactive: 142%"},
      {"smiles": "COc1cc2nc(Nc3cccc(F)c3)nc(N)c2cc1OC", "survival": "inactive: 97%"},
      {"smiles": "CCOc1ccc(S(=O)(=O)N2CCCCC2C)c2ccccc12", "note": "(stereo not given)", "survival": "inactive: 100%"},
      {"smiles": "Cc1ccc(NC(=O)CN(Cc2ccccc2)S(=O)(=O)c2ccc3nc(C)sc3c2)c(C)c1", "survival": "inactive: 83%"},
      {"smiles": "Cc1ccc(-c2nc(CSc3nnc(C)n4c3cc3occc34)c(C)o2)cc1", "survival": "inactive: 72%"},
      {"smiles": "CCCCSc1nnc2c(n1)OC(c1ccc(Br)s1)Nc1ccccc1-2", "note": "(stereo not given)", "survival": "active: 10%"},
      {"smiles": "COc1cccc(-c2cc(C(F)(F)F)n3ncc(C(=O)OC(C)C)c3n2)c1", "survival": "inactive: 76%"},
      {"smiles": "O=C(NCc1ccccc1Cl)c1nnc(Cc2cccc(F)c2)o1", "survival": "inactive: 84%"},
      {"smiles": "Cc1ccc2c(CC(=O)N(Cc3ccc(N(C)C)cc3)Cc3ccco3)coc2c1C", "survival": "active: 45%"},
      {"smiles": "O=C1CSC2(C(=O)N(Cc3cccc(C(F)(F)F)c3)c3ccccc32)N1c1ccc(F)c(F)c1", "note": "(stereo not given)", "survival": "inactive: 81%"},
      {"smiles": "Cc1ccc(CNC(=O)Cn2ccn(-c3cccc(Cl)c3)c(=O)c2=O)cc1", "survival": "inactive: 72%"},
      {"smiles": "COc1cc2c(cc1N)CCCC2", "survival": "inactive: 104%"},
      {"smiles": "CCN(CC)C(=O)C1=C(C)Nc2nc3ccccc3n2C1c1cccc(OC)c1", "note": "(stereo not given)", "survival": "inactive: 62%"},
      {"smiles": "Cc1ccc(-n2c(C)cc(/C=C(\\C#N)C(=O)Nc3ccc(C)c(C)c3)c2C)cc1", "survival": "inactive: 48%"},
      {"smiles": "O=C(Nc1ccccc1C(F)(F)F)c1ccc(F)c(S(=O)(=O)N2CCc3ccccc3C2)c1", "survival": "inactive: 75%"},
      {"smiles": "CCc1ccc(OCC(=O)N(Cc2ccc(C(C)C)cc2)C2CCS(=O)(=O)C2)cc1", "note": "(stereo not given)", "survival": "active: 23%"},
      {"smiles": "Cc1ccc(-c2noc(CNC(=O)c3ccc(C)c(Cl)c3)n2)cc1", "survival": "inactive: 49%"},
      {"smiles": "CCCOc1ccc(C2C(=O)N(C3CCC(C)CC3)CC(=O)N2CCc2ccccc2)cc1OC", "note": "(stereo not given)", "survival": "inactive: 109%"},
      {"smiles": "Cc1cc(C)cc(NC(=O)COc2cccc3c(=O)n(C)ccc23)c1", "survival": "inactive: 89%"},
      {"smiles": "COc1ccc(CCNC(=O)c2ccc(-n3c(C)cc4c3CCC(C)C4)cc2)cc1OC", "note": "(stereo not given)", "survival": "active: 52%"},
      {"smiles": "O=C(CNC(=O)c1ccc(F)cc1)OCc1cc(=O)n2ccsc2n1", "survival": "inactive: 85%"},
      {"smiles": "COc1ccc(C(=O)Nc2ccc3oc(-c4cccc5c(Br)cccc45)nc3c2)cc1", "survival": "inactive: 68%"},
      {"smiles": "CCN1CCc2c(sc(NC(=O)c3ccc(S(=O)(=O)N4CCCC(C)C4)cc3)c2C(=O)OC)C1", "note": "(stereo not given)", "survival": "inactive: 76%"},
      {"smiles": "Cc1cc(C(C)(C)C)oc1C(=O)O", "survival": "inactive: 86%"},
      {"smiles": "Cc1c(Cl)cccc1NC(=O)C(=O)NCCc1csc(-c2ccc(C(F)(F)F)cc2)n1", "survival": "inactive: 55%"},
      {"smiles": "Cc1ccccc1Cn1c(CN2CCC(C(=O)NCc3ccc(Cl)cc3)CC2)cc2ccccc21", "survival": "inactive: 67%"},
      {"smiles": "O=S1(=O)c2ccccc2N(Cc2ccccc2F)c2ccccc21", "survival": "inactive: 92%"},
      {"smiles": "CCCCN(C)C(=O)c1ccc2c(=O)n3nc(Nc4cc(C)ccc4C)sc3nc2c1", "survival": "inactive: 125%"},
      {"smiles": "CS(=O)(=O)N1CCC(C(=O)NC2CCCCC2)CC1", "survival": "inactive: 71%"},
      {"smiles": "CCOC(=O)c1c(S(=O)(=O)N2CCC(C(=O)NCc3cccc(OC)c3)CC2)c(C)n(C)c1C", "survival": "inactive: 81%"},
      {"smiles": "Cc1cccc(N(C)C(=O)Cn2c(=O)oc3cc(S(=O)(=O)N4CCCCC4)ccc32)c1", "survival": "inactive: 64%"},
      {"smiles": "COc1ccc(-c2nc3ccccc3o2)cc1NC(=O)Cc1ccc(Cl)cc1", "survival": "inactive: 54%"},
      {"smiles": "Cc1ccc(CC2CC(=O)N(C3CCCCC3)C2=O)cc1", "note": "(stereo not given)", "survival": "inactive: 80%"},
      {"smiles": "COc1cccc(N2C(=O)C(CC(=O)Nc3cccc(F)c3)N(C3CCCC3)C2=O)c1", "note": "(stereo not given)", "survival": "inactive: 122%"},
      {"smiles": "Cn1ccnc1SCC(=O)Nc1cccc(Br)c1", "survival": "inactive: 65%"},
      {"smiles": "COC(=O)c1ccccc1NC(=O)Cn1c(=O)n(CCC(=O)NCc2ccc3c(c2)OCO3)c(=O)c2ccccc21", "survival": "inactive: 90%"},
      {"smiles": "COc1ccc(C(=O)c2cn(CC(=O)Nc3cc(OC)cc(OC)c3)c3ccc(OC)cc3c2=O)cc1", "survival": "inactive: 77%"},
      {"smiles": "Cc1ccc(-c2cn3nc(N4CCCC(C(=O)NCc5ccccc5F)C4)sc3n2)cc1", "note": "(stereo not given)", "survival": "inactive: 78%"},
      {"smiles": "CC1=C(C(=O)OC2CCCC2)C(c2c(F)cccc2Cl)CC(=O)N1", "note": "(stereo not given)", "survival": "inactive: 70%"},
      {"smiles": "Cc1ccc(Cn2nc3n(c2=O)-c2cc(Cl)ccc2OC3)cc1", "survival": "inactive: 83%"},
      {"smiles": "Cc1ccc(-c2csc(-c3c(N)c(C(=O)c4ccc5c(c4)OCO5)n4ccccc34)n2)cc1", "survival": "inactive: 82%"},
      {"smiles": "CCOC(=O)CNC(=O)N1CCN(S(=O)(=O)c2ccc3c(ccn3C)c2)CC1", "survival": "active: 32%"},
      {"smiles": "COc1ccc(CC(=O)N2CC(=O)Nc3ccc(F)cc3C2c2ccccc2)cc1", "note": "(stereo not given)", "survival": "inactive: 79%"},
      {"smiles": "CC(=O)c1ccc(NC(=O)C2CCN(S(=O)(=O)c3ccc4[nH]c5c(c4c3)CCCCC5)CC2)cc1", "survival": "inactive: 94%"},
      {"smiles": "Cc1ccccc1CNC(=O)Cn1c(=O)c2cccn2c2cccnc21", "survival": "inactive: 76%"},
      {"smiles": "COc1ccccc1CNC(=O)c1ccc(N2CCCC2)c(NC(=O)NCc2ccc(C)cc2)c1", "survival": "inactive: 67%"},
      {"smiles": "CNC(=O)N(O)c1ccccc1", "survival": "inactive: 76%"},
      {"smiles": "CCCOc1ccc(C2c3c(oc4ccccc4c3=O)C(=O)N2c2nnc(C(C)C)s2)cc1", "note": "(stereo not given)", "survival": "active: 58%"},
      {"smiles": "CC1CCCCN1C(=O)c1cccc(C(=O)N2CCCCC2C)c1", "note": "(stereo not given)", "survival": "inactive: 80%"},
      {"smiles": "COC(=O)c1ccc(NC(=O)Cn2c(=O)oc3ccccc32)cc1", "survival": "inactive: 69%"},
      {"smiles": "Cc1nc2ccn(Cc3ccco3)c(=O)c2cc1C(=O)NCc1ccc(Cl)cc1", "survival": "active: 47%"},
      {"smiles": "NC(=O)c1cc(S(=O)(=O)NCc2cccc(Br)c2)cs1", "survival": "inactive: 91%"},
      {"smiles": "Cc1ccc(CNC(=O)c2ccc3c(c2)CCN3S(=O)(=O)c2ccc(Br)cc2)cc1", "survival": "inactive: 80%"},
      {"smiles": "S=c1nc(-c2csc3c2CCCC3)[nH][nH]1", "survival": "inactive: 82%"},
      {"smiles": "COc1ccc(C2CC(=O)c3cc(-c4nc(-c5cccc([N+](=O)[O-])c5)cs4)c(=O)n(-c4ccccc4N)c3C2)cc1", "note": "(stereo not given)", "survival": "inactive: 152%"},
      {"smiles": "COc1ccc(N2CC(NC(=O)C3CCCCC3)CC2=O)cc1", "note": "(stereo not given)", "survival": "inactive: 99%"},
      {"smiles": "CCn1c(SCC(=O)Nc2cc(C)ccc2F)nnc1-c1ccccc1O", "survival": "inactive: 65%"},
      {"smiles": "CCN(c1ccc(OC)cc1)S(=O)(=O)c1ccc2[nH]c3c(c2c1)CCCCC3", "survival": "inactive: 80%"},
      {"smiles": "COc1ccccc1N1CCN(CC(O)COc2ccc(Cl)c(C)c2)CC1", "note": "(stereo not given)", "survival": "inactive: 59%"},
      {"smiles": "COc1ccc(NC(=O)CSc2nnc(-c3ccncc3)n2-c2ccccc2)cc1", "survival": "inactive: 77%"},
      {"smiles": "CN1CCN(C(=O)c2ccc3c(c2)N(Cc2ccc(F)cc2)C(=O)c2ccccc2S3(=O)=O)CC1", "survival": "inactive: 93%"},
      {"smiles": "CCC(C)NC(=O)c1c2c(nc3ccccc13)C(=O)N(C1CCCCC1)C2", "note": "(stereo not given)", "survival": "inactive: 85%"},
      {"smiles": "O=C(CSc1n[nH]c(-c2ccc(F)cc2)n1)N1CCN(c2ccc(F)cc2)CC1", "survival": "active: -5%"},
      {"smiles": "CCOC(=O)c1cc(S(=O)(=O)Nc2ccccc2)[nH]n1", "survival": "inactive: 102%"},
      {"smiles": "COc1ccc(C2=NC(c3ccccc3)=Nc3ccc(C)cc3N2)cc1", "survival": "inactive: 85%"},
      {"smiles": "CCc1ccc(CNC(=O)C2CCN(c3nn4cc(-c5ccc(OC)cc5)nc4s3)CC2)cc1", "survival": "inactive: 76%"},
      {"smiles": "COC(=O)c1ccccc1NC(=O)c1ccc(CN2CC(=O)N3CCCCC3C2=O)cc1", "note": "(stereo not given)", "survival": "inactive: 76%"},
      {"smiles": "CC1CCN(S(=O)(=O)c2ccc3c(c2)CCN3C(=O)Nc2ccccc2Br)CC1", "survival": "inactive: 76%"},
      {"smiles": "COc1ccc2c(c1)cc(CNc1ccc(OC)c(OC)c1)c(=O)n2CC(=O)Nc1ccccc1C", "survival": "inactive: 88%"},
      {"smiles": "Fc1ccc(N2CCN(c3nc4ccccc4c4nc(-c5ccccc5)nn34)CC2)cc1", "survival": "inactive: 81%"},
      {"smiles": "COc1ccc(OCC(=O)Nc2ccc(-c3nc4cc(C)cc(C)c4o3)cc2)cc1", "survival": "inactive: 75%"},
      {"smiles": "Cc1ccc(S(=O)(=O)Nc2cccc(-c3ccc(N4CCC(C)CC4)nn3)c2)s1", "survival": "active: -1%"},
      {"smiles": "CCOc1ccccc1Nc1nc2ccccc2c2nncn12", "survival": "inactive: 56%"},
      {"smiles": "COc1cccc2c1cc1c(=O)n(CC(=O)N3CCN(c4cccc(C)c4C)CC3)nc(C)n12", "survival": "inactive: 92%"},
      {"smiles": "Cc1ccc(CNC(=O)C2CCN(S(=O)(=O)N3CCCCC3)CC2)cc1", "survival": "inactive: 98%"},
      {"smiles": "COc1ccc(CCNC(=O)CCc2c(C)nc3c4c(C)cc(C)nc4nn3c2C)cc1OC", "survival": "inactive: 82%"},
      {"smiles": "CCOc1ccc(CNC(=O)c2ccc3oc(=O)n(Cc4ccccc4)c3c2)cc1", "survival": "inactive: 79%"}
    ]}
  ]
}
